Experimental data: PubChem BioAssay (NCATS)
Values joined by “and” are separate entries in the source; they are usually repeats but may differ in a detail not shown here. Identical values can stand only once. Inconclusive means that the source gave no clear call. Such entries were picked first, then a sample of the others. Potencies of inconclusive entries are doubtful fits and often do not repeat. Some structures have more than one record in an assay (separate samples or runs), and their calls can disagree. Active and inactive are the calls of the source. Calls come from the whole dose curve; as a rule, active = well fitted curve in the direction sought with a large enough effect; inconclusive = small, poorly fitted or top-dose-only effect, or another doubt; inactive = no such curve, though single readings can be large; an effect the other way counts as inactive or inconclusive.

Tests used:
[1] = Viability qHTS for spleen associated tyrosine kinase inhibitor (SYKi) naive MV4-11 cells (AID 1963823); conditions: MV4-11 AML viability, CellTiter-Glo luminescence, 72 h; series mostly up to 45 µM; note: nearly all actives have a fitted effect of over 40% in size
Procedure, shortened: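 Viability of MV4-11 AML cells lacking prior SYK inhibitor exposure is scored by CellTiter-Glo luminescence following 72 hr compound incubation at 37 C, 5% CO2, seeded at 500 cells per well.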

[2] = Viability qHTS for spleen associated tyrosine kinase inhibitor (SYKi) drug resistant MV4-11 cells (AID 1963824); note: nearly all actives have a fitted effect of over 35% in size
Procedure, shortened: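 SYK inhibitor-resistant MV4-11 AML cells, 500 per well, added to predispensed compounds and incubated 72 hr at 37 C, 5% CO2. Viability measured by CellTiter-Glo luminescence after 10 min at room temperature.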

[3] = Quantitative highthroughput screen to assess conditional lethalithy of NOMO1 cells grown in RPMI1640 with untreated serum (RPMI+s) (AID 1963876); conditions: NOMO1 AML cells in RPMI+serum, CellTiter-Glo viability, 48 h; viability: at 45.8 µM (top of the series); note: nearly all actives have a fitted effect of over 35% in size
Procedure, shortened: (§1)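 Each medium arm—HPLM with 10% dialyzed FBS, or RPMI1640 with 5 mM glucose and 10% untreated or dialyzed FBS—was screened against an 11-point, 3-fold compound titration for 48 h at 37 °C, with CellTiter-Glo luminescence as endpoint.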

[4] = Quantitative highthroughput screen to assess conditional lethalithy of NOMO1 cells grown in RPMI1640 with dialyzed fetal bovine serum (RPMI+ds) (AID 1963877); note: nearly all actives have a fitted effect of over 30% in size
Procedure, shortened: as §1

[5] = Quantitative highthroughput screen to assess conditional lethalithy of P12 Ichikawa cells grown in Human Plasma-Like Medium with dialyzed fetal bovine serum (HPLM+ds) (AID 1963879); conditions: Potency: viability; note: nearly all actives have a fitted effect of over 35% in size
Procedure, shortened: as §1

[6] = Quantitative highthroughput screen to assess conditional lethalithy of P12 Ichikawa cells grown in RPMI1640 with dialyzed fetal bovine serum (RPMI+ds) (AID 1963880); conditions: Potency: P12-Ichikawa viability; note: nearly all actives have a fitted effect of over 35% in size
Procedure, shortened: as §1

[7] = Quantitative highthroughput screen to assess conditional lethalithy of P12 Ichikawa cells grown in RPMI1640 with untreated serum (RPMI+s) (AID 1963881); conditions: Potency: viability; note: nearly all actives have a fitted effect of over 35% in size
Procedure, shortened: as §1

[8] = Quantitative highthroughput screen to assess conditional lethalithy of SEM cells grown in Human Plasma-Like Medium with dialyzed fetal bovine serum (HPLM+ds) (AID 1963882); note: nearly all actives have a fitted effect of over 35% in size
Procedure, shortened: as §1

[9] = Quantitative highthroughput screen to assess conditional lethalithy of SEM cells grown in RPMI1640 with dialyzed fetal bovine serum (RPMI+ds) (AID 1963884); conditions: SEM B-ALL cells, RPMI+dialyzed FBS, CellTiter-Glo viability, 48 h; viability: at 45.8 µM (top of the series); note: nearly all actives have a fitted effect of over 35% in size
Procedure, shortened: as §1

[10] = Cellular viability qHTS for adrenocortical cancer (ACC) cell line SW-13 (AID 1963989); conditions: SW-13 ACC cells viability, CellTiter-Glo, 48 h; activity (max response): stronger effect = lower value; note: nearly all actives have a fitted effect of over 65% in size
Procedure, shortened: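 SW-13 cells in ITS-supplemented serum-free DMEM were plated overnight, then exposed for 48 h at 37C to compound titrations (up to 46 uM final). Viability was read by CellTiter-Glo luminescence; four-parameter logistic fits gave IC50 and efficacy.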

[11] = Cellular viability qHTS for adrenocortical cancer (ACC) cell line NCI-H295R (AID 1963990); conditions: CellTiter-Glo ATP luminescence, 48 h; series mostly up to 46.1 µM; note: nearly all actives have a fitted effect of over 60% in size
Procedure, shortened: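 Luminescent ATP read-out (CellTiter-Glo, 20 min RT) after 48 h drug exposure of NCI-H295R cells; a titration up to 46 uM final. Data normalized to doxorubicin (100% inhibition) and DMSO (0%); 4-parameter fit gives IC50, max response.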

[12] = Quantitative highthroughput screen to assess conditional lethalithy of SEM cells grown in RPMI1640 with unreated serum (RPMI+s) (AID 1963883); conditions: SEM B-ALL cells, CellTiter-Glo viability, 48 h; viability: at 45.8 µM (top of the series); note: nearly all actives have a fitted effect of over 35% in size
Procedure, shortened: as §1

[13] = Quantitative highthroughput screen to assess conditional lethalithy of NOMO1 cells grown in Human Plasma-Like Medium with dialyzed fetal bovine serum (HPLM+ds) (AID 1963878); conditions: NOMO1 AML cells in HPLM+ds, CellTiter-Glo viability, 48 h; viability: at 45.8 µM (top of the series); note: nearly all actives have a fitted effect of over 35% in size
Procedure, shortened: as §1
Potency is the fitted concentration of half-maximal effect; tags give direction and shape of the fitted curve.

SMILES | Potency [1] | Potency [2] | Potency [3] | Potency [4] | Potency [5] | Potency [6] | Potency [7] | Potency [8] | Potency [9] | Potency [10] | Potency [11] | Potency [12] | Potency [13]
N#Cc1ccnc(Nc2cc(C3CCN(C4COC4)CC3)cc(N3CCC(F)(F)C3)n2)c1 | active: 1.16 µM and active: 118 nM | active: 2.06 µM and active: 235 nM | active: 13.2 µM | active: 13.2 µM | inconclusive: 26.3 µM [cytotoxic, single point] | inconclusive: 13.2 µM [cytotoxic, partial curve] | inconclusive: 14.8 µM [cytotoxic, partial curve] |  |  |  |  |  | 
Cn1c2cc(S(C)=O)sc2c2cnn(Cc3cccc(N)c3)c(=O)c21 (stereo not drawn) | inconclusive: 16.6 µM [cytotoxic, partial curve] | inconclusive: 33.2 µM [cytotoxic, single point] | inactive | inconclusive: 0.132 µM [cytotoxic, full curve, poor fit] |  |  | inconclusive: 9.35 µM [cytotoxic, partial curve] | inconclusive: 16.6 µM [cytotoxic, partial curve] | inconclusive: 18.7 µM [cytotoxic, partial curve] |  |  |  | 
COc1ccc(S(=O)(=O)Nc2cc(-c3c(O)ccc4ccccc34)c(O)c3ccccc23)cc1 | active: 1.18 µM | inconclusive: 0.59 µM [cytotoxic, full curve] | inconclusive: 26.4 µM [cytotoxic, single point] | inconclusive: 33.2 µM [cytotoxic, single point] |  | active: 18.7 µM |  | active: 14.8 µM |  | inconclusive: 28.2 µM [cytotoxic, single point] |  |  | 
O=c1ccn([C@@H]2O[C@H](CO)[C@H](O)[C@@H]2F)c(=O)[nH]1 | inconclusive: 20.9 µM [cytotoxic, partial curve] | inconclusive: 37.2 µM [cytotoxic, single point] | inactive | inactive |  |  | inactive |  |  |  | inactive |  | 
c1cnc2cc3c(cc2n1)C1CNCC3C1 | inactive | inactive and inconclusive: 14.8 µM [cytotoxic, partial curve] | inconclusive: 26.4 µM [cytotoxic, partial curve, poor fit] | inconclusive: 33.2 µM [cytotoxic, single point] |  | inactive | inactive | inactive |  |  |  | inactive | 
Cc1cccc(Nc2nc(N[C@@H]3CCCC[C@H]3N)ncc2C(N)=O)c1 | active: 0.934 µM | active: 2.63 µM | inconclusive: 2.64 µM [cytotoxic, full curve] | inconclusive: 1.66 µM [cytotoxic, full curve] | active: 1.32 µM |  |  | inconclusive: 2.64 µM [cytotoxic, full curve] | active: 2.35 µM | active: 25.1 µM |  | active: 4.18 µM | 
Cc1cc(C)c(CNC(=O)c2cc(-c3ccc(CN4CCOCC4)cc3)cc3c2cnn3C2CCCC2)c(=O)[nH]1 | inactive and inconclusive: 20.9 µM [cytotoxic, partial curve] | inactive and active: 14.8 µM | inconclusive: 33.1 µM [cytotoxic, single point] | inconclusive: 37.1 µM [cytotoxic, single point] |  | inconclusive: 37.1 µM [cytotoxic, single point] | inconclusive: 37.1 µM [cytotoxic, single point] | inconclusive: 33.1 µM [cytotoxic, single point] | inconclusive: 37.1 µM [cytotoxic, single point] | inconclusive: 31.6 µM [cytotoxic, single point] | inconclusive: 31.6 µM [cytotoxic, single point] | inconclusive: 20.9 µM [cytotoxic, partial curve, poor fit] | 
Cn1cc(-c2ccc(F)c(C(F)(F)F)c2)nc1C1CCN(c2ncnc3[nH]ncc23)CC1 | inconclusive: 1.78 µM [cytotoxic, full curve] and inconclusive: 7.42 µM [cytotoxic, full curve] | inconclusive: 8.33 µM [cytotoxic, partial curve] | inactive | inactive | inactive |  |  |  | inconclusive: 13.2 µM [cytotoxic, partial curve, poor fit] |  |  |  | 
Fc1ccc(Cl)cc1-c1nc(Nc2ccncc2)c2nccnc2n1 | inactive and active: 18.6 µM | inconclusive: 18.6 µM [cytotoxic, partial curve, poor fit] | inactive | inactive | inactive |  |  |  |  |  |  |  | 
COc1ccc(Nc2cc(-c3cnc(N)nc3)nc(N3CCOCC3)n2)cn1 | inconclusive: 2.31 µM [cytotoxic, full curve] | inconclusive: 2.06 µM [cytotoxic, full curve] | inconclusive: 3.32 µM [cytotoxic, full curve, poor fit] |  | inconclusive: 2.35 µM [cytotoxic, full curve, poor fit] |  | active: 2.35 µM | inconclusive: 2.35 µM [cytotoxic, full curve] | inconclusive: 2.64 µM [cytotoxic, full curve] | inconclusive: 2.51 µM [cytotoxic, partial curve] | active: 2.24 µM | inconclusive: 2.35 µM [cytotoxic, full curve] | inconclusive: 6.62 µM [cytotoxic, partial curve]
CNC(=O)c1cc(Oc2ccc(NC(=O)Nc3ccc(Cl)c(C(F)(F)F)c3)cc2)ccn1 | inconclusive: 14.8 nM [cytotoxic, full curve] and active: 21.1 nM and inconclusive: 9.2 nM [cytotoxic, full curve] | active: 23.5 nM and active: 59.6 nM and active: 13 nM | inconclusive: 26.4 µM [cytotoxic, single point] |  |  | inconclusive: 26.4 µM [cytotoxic, single point] | inconclusive: 26.4 µM [cytotoxic, single point] | inconclusive: 0.0059 µM [cytotoxic, full curve] | inconclusive: 0.0148 µM [cytotoxic, full curve, poor fit] |  |  | inconclusive: 2.09 µM [cytotoxic, partial curve, poor fit] | inconclusive: 26.4 µM [cytotoxic, single point]
CC(C)[C@H](C(=O)Nc1ccc(C(=O)NO)cc1)c1ccccc1 | inconclusive: 0.525 µM [cytotoxic, full curve, poor fit] | inconclusive: 0.417 µM [cytotoxic, full curve, poor fit] | active: 3.32 µM |  | active: 2.35 µM |  |  | active: 1.48 µM |  | inconclusive: 3.16 µM [cytotoxic, full curve, poor fit] |  | active: 1.66 µM | active: 2.64 µM
c1cncc(CN2CCC(n3ncc4c(N5CCOCC5)nc(-c5ccc6[nH]ccc6c5)nc43)CC2)c1 | active: 1.03 µM and active: 1.32 µM | active: 1.84 µM and active: 1.86 µM | active: 16.6 µM |  | inconclusive: 14.8 µM [cytotoxic, partial curve] | active: 13.2 µM |  | inconclusive: 14.8 µM [cytotoxic, partial curve] | active: 14.8 µM |  |  |  | inconclusive: 5.9 µM [cytotoxic, partial curve]
COc1cc2c(Oc3ccc(NC(=O)C4(C(=O)Nc5ccc(F)cc5)CC4)cc3F)ccnc2cc1OCCCN1CCOCC1 | inactive and active: 2.6 nM | inconclusive: 0.0092 µM [cytotoxic, full curve, poor fit] | active: 11.8 µM |  |  | active: 1.66 µM | active: 2.35 µM | inconclusive: 2.64 µM [cytotoxic, partial curve] | inconclusive: 0.743 µM [cytotoxic, partial curve] | active: 3.16 µM | active: 2.82 µM | inconclusive: 1.18 µM [cytotoxic, partial curve] | active: 13.2 µM
C[C@@H]1C[C@H]2[C@@H]3CCC4=CC(=O)C=C[C@]4(C)[C@@]3(F)[C@@H](O)C[C@]2(C)[C@@]1(O)C(=O)CO | inconclusive: 1.33 µM [cytotoxic, full curve, poor fit] and inconclusive: 662 nM [cytotoxic, full curve, poor fit] | inconclusive: 15 µM [cytotoxic, partial curve, poor fit] and inconclusive: 6.61 µM [cytotoxic, partial curve] | inconclusive: 18.7 µM [cytotoxic, partial curve, poor fit] |  | inconclusive: 0.0662 µM [cytotoxic, full curve] | inconclusive: 0.0526 µM [cytotoxic, full curve] | inconclusive: 0.0833 µM [cytotoxic, full curve] | inconclusive: 0.469 µM [cytotoxic, full curve, poor fit] | inconclusive: 0.0526 µM [cytotoxic, full curve] |  |  | inconclusive: 0.296 µM [cytotoxic, full curve, poor fit] | inconclusive: 0.372 µM [cytotoxic, full curve, poor fit]
